This is an account of results in publication PMC12820563.

The list shows a part of the results. The list includes weakly bound sequences.

For the test, the target named is T1, MBP-FoxP3dN (UniProt Q99JB6).
T1 sequence: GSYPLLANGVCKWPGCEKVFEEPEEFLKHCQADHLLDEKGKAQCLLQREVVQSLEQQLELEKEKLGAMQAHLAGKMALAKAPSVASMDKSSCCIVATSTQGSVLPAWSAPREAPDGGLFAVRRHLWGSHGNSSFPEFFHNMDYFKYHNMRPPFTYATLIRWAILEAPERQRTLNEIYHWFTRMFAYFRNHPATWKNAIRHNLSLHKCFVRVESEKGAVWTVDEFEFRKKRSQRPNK
Briefly: PD-seq (MBP pull-down with sequencing). The note with it: 20 mM Tris-HCl pH 7.5, 100 mM NaCl, 1.5 mM MgCl2, 0.4 uM protein, 0.1 uM dsDNA library, 30 min, room temperature, amylose pull-down; high values mean tight binding; double strand, one strand shown.
Regarding “GATGATTGTTCTCCCAGCTGATGAATTTGTGGGGTCGAGTAAACAAATTTTCCTAATCTTTCTGTTCAAGCGCCATCTAC”, the binding signal (RPM ratio (pull-down/input)) is 4.93. The figure for “GATGATTGTTCTCCCAGCTGATGAATTCATCTCATCGAGTAAACAAATTTTCCTAATCTTTCTGTTCAAGCGCCATCTAC” is 0.393; for “GATGATTGTTCTCCCAGCTGATGAATTTGATCTTTCGAGTAAACAAATTTTCCTAATCTTTCTGTTCAAGCGCCATCTAC” it is 0.319. As to “GATGATTGTTCTCCCAGCTGATGAATTACACTCTTCGAGTAAACAAATTTTCCTAATCTTTCTGTTCAAGCGCCATCTAC”, the binding signal (RPM ratio (pull-down/input)) was found to be 0.619. To “GATGATTGTTCTCCCAGCTGATGAATTTTATCCGTCGAGTAAACAAATTTTCCTAATCTTTCTGTTCAAGCGCCATCTAC” belongs 0.336; to “GATGATTGTTCTCCCAGCTGATGAATTCGTCCGGTCGAGTAAACAAATTTTCCTAATCTTTCTGTTCAAGCGCCATCTAC”, 0.264.

As to “GATGATTGTTCTCCCAGCTGATGAATTAGGGACATCGAGTAAACAAATTTTCCTAATCTTTCTGTTCAAGCGCCATCTAC”, the binding signal (RPM ratio (pull-down/input)) came to 0.55. For “GATGATTGTTCTCCCAGCTGATGAATTGAAGAGATCGAGTAAACAAATTTTCCTAATCTTTCTGTTCAAGCGCCATCTAC”, the binding signal (RPM ratio (pull-down/input)) came out at 0.222. To “GATGATTGTTCTCCCAGCTGATGAATTTTGCGACTCGAGTAAACAAATTTTCCTAATCTTTCTGTTCAAGCGCCATCTAC” belongs 3.17. The figure for “GATGATTGTTCTCCCAGCTGATGAATTAAATTCATCGAGTAAACAAATTTTCCTAATCTTTCTGTTCAAGCGCCATCTAC” is 0.395.

In the case of “GATGATTGTTCTCCCAGCTGATGAATTCTCATCCTCGAGTAAACAAATTTTCCTAATCTTTCTGTTCAAGCGCCATCTAC”, the binding signal (RPM ratio (pull-down/input)) came to 0.287.

Turning to “GATGATTGTTCTCCCAGCTGATGAATTAGGTGTTTCGAGTAAACAAATTTTCCTAATCTTTCTGTTCAAGCGCCATCTAC”, the binding signal (RPM ratio (pull-down/input)) is 1.7.

In the case of “GATGATTGTTCTCCCAGCTGATGAATTAGCGCGATCGAGTAAACAAATTTTCCTAATCTTTCTGTTCAAGCGCCATCTAC”, the binding signal (RPM ratio (pull-down/input)) came out at 0.657.

With “GATGATTGTTCTCCCAGCTGATGAATTCTGACCTTCGAGTAAACAAATTTTCCTAATCTTTCTGTTCAAGCGCCATCTAC”, the binding signal (RPM ratio (pull-down/input)) came to 0.344.

In the case of “GATGATTGTTCTCCCAGCTGATGAATTGACGTCCTCGAGTAAACAAATTTTCCTAATCTTTCTGTTCAAGCGCCATCTAC”, the binding signal (RPM ratio (pull-down/input)) is 0.48.

As for “GATGATTGTTCTCCCAGCTGATGAATTGGCCTGGTCGAGTAAACAAATTTTCCTAATCTTTCTGTTCAAGCGCCATCTAC”, the binding signal (RPM ratio (pull-down/input)) was determined as 0.366. “GATGATTGTTCTCCCAGCTGATGAATTGCATCTCTCGAGTAAACAAATTTTCCTAATCTTTCTGTTCAAGCGCCATCTAC”: the binding signal (RPM ratio (pull-down/input)) amounted to 4.07. For the sequence “GATGATTGTTCTCCCAGCTGATGAATTAAAAATCTCGAGTAAACAAATTTTCCTAATCTTTCTGTTCAAGCGCCATCTAC”, the binding signal (RPM ratio (pull-down/input)) stood at 0.236. The figure for “GATGATTGTTCTCCCAGCTGATGAATTCCTTTGCTCGAGTAAACAAATTTTCCTAATCTTTCTGTTCAAGCGCCATCTAC” is 0.42. “GATGATTGTTCTCCCAGCTGATGAATTTTATCTTTCGAGTAAACAAATTTTCCTAATCTTTCTGTTCAAGCGCCATCTAC”: the binding signal (RPM ratio (pull-down/input)) is 0.517. To “GATGATTGTTCTCCCAGCTGATGAATTCCCAAAATCGAGTAAACAAATTTTCCTAATCTTTCTGTTCAAGCGCCATCTAC” belongs 0.172; to “GATGATTGTTCTCCCAGCTGATGAATTACCGTTGTCGAGTAAACAAATTTTCCTAATCTTTCTGTTCAAGCGCCATCTAC”, 0.697. To “GATGATTGTTCTCCCAGCTGATGAATTGAGATGGTCGAGTAAACAAATTTTCCTAATCTTTCTGTTCAAGCGCCATCTAC” belongs 0.493; to “GATGATTGTTCTCCCAGCTGATGAATTTGTCAAGTCGAGTAAACAAATTTTCCTAATCTTTCTGTTCAAGCGCCATCTAC”, 0.764. The figure for “GATGATTGTTCTCCCAGCTGATGAATTAAGAATTTCGAGTAAACAAATTTTCCTAATCTTTCTGTTCAAGCGCCATCTAC” is 1.12.

“GATGATTGTTCTCCCAGCTGATGAATTGAAGGAATCGAGTAAACAAATTTTCCTAATCTTTCTGTTCAAGCGCCATCTAC”: the binding signal (RPM ratio (pull-down/input)) stood at 0.166. The figure for “GATGATTGTTCTCCCAGCTGATGAATTCTATGCATCGAGTAAACAAATTTTCCTAATCTTTCTGTTCAAGCGCCATCTAC” is 1.21; for “GATGATTGTTCTCCCAGCTGATGAATTGGTGGCTTCGAGTAAACAAATTTTCCTAATCTTTCTGTTCAAGCGCCATCTAC” it is 0.748.

On to “GATGATTGTTCTCCCAGCTGATGAATTTAAGAGTTCGAGTAAACAAATTTTCCTAATCTTTCTGTTCAAGCGCCATCTAC”, for which the binding signal (RPM ratio (pull-down/input)) was determined as 0.415. To “GATGATTGTTCTCCCAGCTGATGAATTCCGGCAATCGAGTAAACAAATTTTCCTAATCTTTCTGTTCAAGCGCCATCTAC” belongs 1.76. For “GATGATTGTTCTCCCAGCTGATGAATTGATGCGGTCGAGTAAACAAATTTTCCTAATCTTTCTGTTCAAGCGCCATCTAC”, the binding signal (RPM ratio (pull-down/input)) is 3.14. With “GATGATTGTTCTCCCAGCTGATGAATTTAGCACATCGAGTAAACAAATTTTCCTAATCTTTCTGTTCAAGCGCCATCTAC”, the binding signal (RPM ratio (pull-down/input)) was 1.05.
